Experimental data as given in PubChem BioAssay AID624417 (National Center for Advancing Translational Sciences (NCATS), 2012).
Where “and” joins values, the source holds several entries; their conditions need not be identical. Equal values may be shown once. Screen size: about 410,000 compounds; about 6,400 (1.6%) were called active. This list was built around the results that the source calls inconclusive (neither active nor inactive); the mix of calls is not that of the screen. Calls follow the shape of the dose curve; as a rule, active = well fitted inhibition curve with a large enough effect; inconclusive = small, poorly fitted or top-dose-only effect; inactive = no such curve, though single readings can be large or run the other way. Potencies of inconclusive entries are doubtful fits and often do not repeat.

Each molecule was assayed against Glucagon-like peptide 1 receptor (Homo sapiens) (UniProt P43220) (assay: qHTS of GLP-1 Receptor Inverse Agonists (Inhibition Mode)). Conditions: HEK293 GLP-1R CRE-luciferase, luminescence, 24 h, GLP-1R form is constitutively active; activity change, negative = inhibition: at 38.3 µM (top of the series) unless noted.
Chain of UniProt P43220 (P43220 whole entry, looked up): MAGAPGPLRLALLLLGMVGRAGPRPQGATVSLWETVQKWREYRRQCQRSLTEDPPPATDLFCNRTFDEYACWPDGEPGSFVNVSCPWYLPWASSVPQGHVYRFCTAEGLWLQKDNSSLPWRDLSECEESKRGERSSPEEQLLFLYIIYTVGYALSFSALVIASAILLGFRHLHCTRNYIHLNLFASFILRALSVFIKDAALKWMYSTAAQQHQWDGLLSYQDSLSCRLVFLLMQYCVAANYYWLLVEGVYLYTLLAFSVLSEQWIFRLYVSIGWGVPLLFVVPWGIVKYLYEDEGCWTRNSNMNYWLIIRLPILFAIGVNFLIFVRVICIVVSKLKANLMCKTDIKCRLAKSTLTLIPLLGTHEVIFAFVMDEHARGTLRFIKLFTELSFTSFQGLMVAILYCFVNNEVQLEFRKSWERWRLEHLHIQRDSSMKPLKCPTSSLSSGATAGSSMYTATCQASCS
Method in brief: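 GLP-1R inverse agonism mode: basal reporter luminescence in engineered HEK293 cells measured after one day of compound exposure at 37 deg C, with a 12 min room-temperature detection step.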
% is scaled to controls: 0 for no effect and ±100 for the full control effect; potency is read from the fitted curve at half-maximal effect; tags tell the direction and shape of the fitted curve.
Also: nearly all actives have a fitted effect of over 55% in size.

| SMILES | Potency | activity change, negative = inhibition |
| --- | --- | --- |
| CC(O)(c1cccc(F)c1)c1nc(-c2csc3ccccc23)cs1 (centres undefined) | inconclusive: 28.2 µM [inhibitor, single point] | – |
| COc1ccc2c3c(cccc13)C(=O)CC2 | – | inactive: 78% |
| COc1ccc(C(=O)N2c3ccccc3C=CC2C#N)cc1 (centres undefined) | inconclusive: 14.1 µM [inhibitor, partial curve, poor fit] | – |
| O=C(COC(=O)c1nn(CCO)c(=O)c2ccccc12)Nc1ccc(Cl)c(Cl)c1 | – | inactive: 2.09% |
| CSc1ccc(CCNC(=O)CN2C(=O)COc3ccc(S(=O)(=O)N4CCCCCC4)cc32)cc1 | inconclusive: 14.1 µM [inhibitor, single point] | – |
| Cc1cc(C)cc(C(=O)NC(=S)Nc2cccnc2)c1 | inconclusive: 28.2 µM [inhibitor, single point] | – |
| Cc1ccc(Nc2cc(C)nc(NCc3ccccc3)n2)cc1 | inconclusive: 14.1 µM [inhibitor, single point] | – |
| CCOc1ccc(CNC(=O)c2cc3cc(S(=O)(=O)N4CCCCC4)ccc3n2C)cc1 | – | inactive: -28.9% |
| O=C(O)c1cccc(NS(=O)(=O)c2ccc3c(c2)C(=O)c2ccccc2C3=O)c1 | – | inactive: 15.8% |
| Oc1ccc(NCc2ccccc2OCc2ccccc2)cc1 | inactive | – |
| CCOc1cc(C(=O)N/N=C/c2ccsc2)cc(OCC)c1OCC | – | inactive: -10.6% |
| O=C(CC(c1ccccc1)c1ccco1)Nc1nccs1 (centres undefined) | inconclusive: 15.8 µM [inhibitor, single point] | – |
| COc1ccc(-c2n[nH]c(C)c2-c2cnn(-c3ccccc3)c2)c(O)c1C | inconclusive: 28.2 µM [inhibitor, single point] | – |
| O=C(CN1CCN(c2ccccn2)CC1)N(c1ccccc1)c1ccc2ccccc2c1 | inconclusive: 11.2 µM [inhibitor, partial curve, poor fit] | – |
| COc1ccccc1C(C)Nc1nc(-c2cccnc2)nc2ccccc12 (centres undefined) | inconclusive: 25.1 µM [inhibitor, single point] | – |
| O=C(CSCc1ccc([N+](=O)[O-])cc1)NC1CCCCCC1 | inconclusive: 6.31 µM [inhibitor, partial curve, poor fit] | – |
| CC(C)(C)C(=O)NC(=S)NNC(=O)c1ccc(Cl)cc1Cl | inconclusive: 28.2 µM [inhibitor, single point] | – |
| CCCCn1c(SCC(N)=O)nc2c(sc3ccccc32)c1=O | – | inactive: -1.24% |
| COCCNC(=O)C1(C)CCCN(Cc2ccc(C)c3ccccc23)C1 (centres undefined) | – | inactive: -28.4% |
| O=C(/C=C/Nc1ccccc1)c1ccccc1 | inconclusive: 12.6 µM [inhibitor, single point] | – |
| COc1ccc(S(=O)(=O)Nc2cccc(-c3ccc(N4CCCCC4)nn3)c2)cc1F | inconclusive: 28.2 µM [inhibitor, single point] | – |
| COc1ccc(-c2n[nH]c(=S)n2-c2ccccc2C)cc1OC | – | inactive: 15.8% |

| SMILES | Potency | activity change, negative = inhibition |
| --- | --- | --- |
| CCOC(=O)c1c(CSc2ccccc2)n(C)c2cc(Br)c(O)c(CN(C)C)c12 | inconclusive: 10 µM [inhibitor, partial curve, poor fit] | – |
| Clc1cccc(CNc2ccn3nc(-c4cccc(Cl)c4)cc3n2)c1 | inconclusive: 11.2 µM [inhibitor, single point] | – |
| CCCn1cnc2scc(-c3ccc(C)c(C)c3)c2c1=O | inconclusive: 28.2 µM [inhibitor, single point] | – |
| CN1C(=O)c2ccccc2Sc2ccc(NC(=O)N3CCN(c4ccc(F)cc4)CC3)cc21 | inconclusive: 2.82 µM [inhibitor, single point] | – |
| COc1ccc(/C=N/Nc2nncc3ccccc23)c(OC)c1 | – | inactive: 27.9% |
| O=C1NC(Cc2ccccc2)c2nc3cc(F)c(F)cc3c(=O)n2-c2cc3ccccc3cc21 (centres undefined) | inconclusive: 8.91 µM [inhibitor, single point] | – |
| CCCc1cc(=O)[nH]c(SCC(=O)N2CC3(C)CC2CC(C)(C)C3)n1 (centres undefined) | inconclusive: 4.47 µM [inhibitor, partial curve, poor fit] | – |
| COc1cccc(NC(=O)N2CCN(c3cccc(C)c3C)CC2)c1 | inconclusive: 10 µM [inhibitor, partial curve, poor fit] | – |
| CC(C)CCNC(=O)Cn1c2c(c(-c3ccccc3Cl)cc1=O)CCC2 | inconclusive: 31.6 µM [inhibitor, single point] | – |
| CCOC(=O)C1=C(SCC)c2cc3c(n2C1=O)CCCC3 | inconclusive: 7.08 µM [inhibitor, partial curve, poor fit] | – |
| COc1cc(NC(=O)CN(C)CCOc2ccccc2)c(C)cc1[N+](=O)[O-] | inconclusive: 10 µM [inhibitor, single point] | – |
| O=C(NNC(=S)Nc1cccc(Cl)c1)c1ccccc1OC(F)F | inconclusive: 3.55 µM [inhibitor, single point] | – |
| Cc1cc(C)c2oc(-c3ccc(C)c(NC(=S)NC(=O)/C=C/c4ccco4)c3)nc2c1 | inconclusive: 31.6 µM [inhibitor, single point] | – |
| CCc1ccc(-c2nc(CS(=O)CC(=O)NCc3ccco3)c(C)o2)cc1 (centres undefined) | inconclusive: 5.62 µM [inhibitor, full curve, poor fit] | – |
| CC1=CC(C)(C)NC(=S)N1c1ccc([N+](=O)[O-])cc1 | inconclusive: 25.1 µM [inhibitor, single point] | – |
| O=C(CCSc1ccccc1)N1CCN(c2ccccc2F)CC1 | inconclusive: 28.2 µM [inhibitor, single point] | – |
| Cc1cc(C(=O)c2ccccc2)nc2ccccc12 | inconclusive: 28.2 µM [inhibitor, single point] | – |
| CCOc1ccc(-c2cc(C(=O)N3CCN(c4ccccn4)CC3)c3ccccc3n2)cc1 | – | inactive: -17.2% |
| CN(C)/C=C/C(=O)c1cccc(Cl)c1 | – | inactive: -8.04% |
| Cc1cccc(N(Cc2ccccc2)C(=O)c2ccc(C)c(S(=O)(=O)N3CCOCC3)c2)c1 | inconclusive: 12.6 µM [inhibitor, partial curve, poor fit] | – |
| Cc1cccc(C)c1NC(=O)CCCSc1nnc(-c2ccc(Cl)cc2)n1-c1ccccc1 | active: 5.62 µM | – |
| CCN(CC)CCNC(=O)c1cc2c(-c3cccc(OC)c3)nn(C)c2s1 | inconclusive: 17.8 µM [inhibitor, single point] and inconclusive: 7.94 µM [inhibitor, partial curve, poor fit] | – |
